# In the antibiotic and cytotoxicity screens of Wong et al. (2023):
# This is one part of the list.
# System: HepG2
# Test: cytotoxicity call (relative viability < 0.9)
# Details: 10 µM
row,SMILES,cytotoxicity call
1,NC1CCN(C(=O)c2c[nH]c3ccccc23)CC1,inactive
2,Cc1cccc(Nc2ccccc2C(=O)O)c1C,inactive
3,COc1ccccc1-c1ccc2c(c1)O[C@H](CN(C)CC1CCOCC1)[C@@H](C)CN([C@@H](C)CO)S2(=O)=O,inactive
4,C[C@H](CO)N1C[C@H](C)[C@@H](CN(C)S(C)(=O)=O)Oc2ccc(NS(C)(=O)=O)cc2C1=O,inactive
5,C[C@@H]1CN([C@@H](C)CO)S(=O)(=O)c2ccc(C#CC3CCCC3)cc2O[C@H]1CN(C)C(=O)Cc1ccncc1,inactive
6,Cn1cnc(CCNC(=O)C[C@@H]2CC[C@@H]3[C@H](COC[C@H](O)CN3C(=O)C3CC3)O2)c1,inactive
7,CC(C)NC(=O)Nc1ccc2c(c1)CC(=O)N([C@H](C)CO)C[C@H](C)[C@@H](CN(C)S(=O)(=O)c1ccc(F)cc1)O2,inactive
8,COc1ccccc1C(=O)Nc1ccc2c(c1)C(=O)N(C)[C@H]1CC[C@@H](CC(=O)NCCc3ccncc3)O[C@@H]1CO2,inactive
9,NCCCCC(=O)O,inactive
10,O=C1/C(=C/C=C/c2ccco2)CCC/C1=C\C=C\c1ccco1,inactive
11,Cc1noc(C)c1S(=O)(=O)Nc1ccc2c(c1)C(=O)N([C@@H](C)CO)C[C@H](C)[C@H](CN(C)C(=O)Nc1ccccc1)O2,inactive
12,O=C(C[C@H]1C[C@@H]2c3cc(NS(=O)(=O)c4ccc(F)cc4)ccc3O[C@@H]2[C@@H](CO)O1)NC1CCCCC1,inactive
13,C[C@H](CO)N1C[C@H](C)[C@@H](CN(C)C(=O)CCC(F)(F)F)OCCCC[C@H](C)Oc2ccc(NC(=O)Cc3ccccc3)cc2C1=O,inactive
14,CNC[C@H]1OCCCC[C@H](C)Oc2ccc(NS(=O)(=O)c3c(C)noc3C)cc2C(=O)N([C@H](C)CO)C[C@H]1C,inactive
15,C[C@H](CO)N1C[C@H](C)[C@H](CN(C)Cc2ccc(Oc3ccccc3)cc2)Oc2c(NS(=O)(=O)c3ccc(Cl)cc3)cccc2C1=O,inactive
16,Cc1noc(C)c1NC(=O)Nc1ccc2c(c1)C(=O)N([C@@H](C)CO)C[C@@H](C)[C@H](CN(C)C(=O)Nc1cccc3ccccc13)OCCCC[C@@H](C)O2,inactive

row,SMILES,cytotoxicity call
1,O=C(Nc1ccc2c(c1)[C@H]1C[C@@H](CC(=O)N3CCc4ccccc4C3)O[C@@H](CO)[C@H]1O2)C1CCOCC1,inactive
2,N#CCC(=O)NN,inactive
3,[O-][NH2+]N1CCCCCCC1,inactive
4,Cc1ccc(S(=O)(=O)N(C)C[C@@H]2Oc3ccc(NS(C)(=O)=O)cc3C(=O)N([C@H](C)CO)C[C@H]2C)cc1,inactive
5,COc1ccc(NC(=O)N(C)C[C@H]2OCc3ccccc3-c3c(n(C)c4ccccc34)C(=O)N([C@@H](C)CO)C[C@H]2C)c(OC)c1,inactive
6,COc1ccc(S(=O)(=O)N[C@@H](CNc2nc(C)nc(N3CCC(c4ccc5c(n4)NCCC5)CC3)c2C)C(=O)O)cc1,active
7,C[C@H](CO)N1C[C@H](C)[C@@H](CN(C)S(=O)(=O)c2ccc(F)cc2)OCCCC[C@H](C)Oc2ccc(NC(=O)Nc3ccc(C(F)(F)F)cc3)cc2C1=O,inactive
8,C[C@H]1CCCCO[C@@H](CN(C)Cc2ccc3c(c2)OCO3)[C@@H](C)CN([C@@H](C)CO)C(=O)c2cc(NC(=O)c3ccccc3)ccc2O1,inactive
9,CO[C@@H]1CN(C)C(=O)c2cc(NC(=O)CC(F)(F)F)ccc2OC[C@H](C)N(C(=O)C2CCOCC2)C[C@@H]1C,inactive
10,C[C@@H]1CN([C@H](C)CO)C(=O)c2cc(NC(=O)Nc3ccc(F)cc3)ccc2O[C@@H](C)CCCCO[C@@H]1CN(C)C(=O)C1CCCCC1,inactive
11,C[C@@H]1CN([C@@H](C)CO)C(=O)Cc2cc(NS(=O)(=O)c3cn(C)cn3)ccc2O[C@@H]1CN(C)S(=O)(=O)c1ccc(F)cc1,inactive
12,C[C@@H]1CN([C@@H](C)CO)C(=O)Cc2cc(NC(=O)CCC(F)(F)F)ccc2O[C@@H]1CN(C)Cc1ccc(C(=O)Nc2ccccc2N)cc1,inactive
13,C[C@@H]1CN([C@H](C)CO)C(=O)c2cc(NC(=O)CCC(F)(F)F)ccc2O[C@@H](C)CCCCO[C@H]1CN(C)C(=O)Cc1ccccc1,inactive
14,COCC#Cc1ccc2c(c1)O[C@H](CN(C)Cc1ccc3c(c1)OCO3)[C@H](C)CN([C@H](C)CO)S2(=O)=O,inactive
15,CSc1n[nH]c(=O)c2cc(C)nn12,inactive
16,C[C@@H]1CCCCO[C@H](CN(C)CC2CCCCC2)[C@H](C)CN([C@H](C)CO)C(=O)c2cc(NS(=O)(=O)c3ccccc3)ccc2O1,inactive
